± gives the standard deviation of the averaged measurements. Over roughly 33,000 sequences, “E-score (dimensionless, -0.5 to 0.5)” has its median near -0.049; the highest 2% begin near 0.37. Some of the results follow.

From the supplement of paper PMC4166925 come the findings set out here.

This test relates to T1, PmTbr T-box DNA-binding domain (GST fusion).
T1 sequence: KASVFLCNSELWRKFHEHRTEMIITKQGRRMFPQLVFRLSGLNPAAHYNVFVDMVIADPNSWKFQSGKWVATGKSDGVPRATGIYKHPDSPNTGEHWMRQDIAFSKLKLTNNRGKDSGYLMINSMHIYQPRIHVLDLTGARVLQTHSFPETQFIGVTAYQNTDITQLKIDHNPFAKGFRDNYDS
Description: PBM E-score of 8-mer (E-score (dimensionless, -0.5 to 0.5)); Tbr is Tbrain of the sea star Patiria miniata (Pm) or the sea urchin Strongylocentrotus purpuratus (Sp); higher = stronger binding preference; most listed sequences are background and not binding sites. As to conditions: the construct has about 5 more residues each side. The method in brief:
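Primer extension turned Universal Agilent oligonucleotide arrays double-stranded. They were incubated with 200 nM protein in PBS (pH 7.5); the protein was a GST-fused Tbr T-box DNA-binding domain expressed in BL21 E. coli at 20 °C and purified on glutathione. Every ungapped 8-mer was scored from the scanned, quantified probe intensities, and the Universal PBM Analysis Suite gave each an enrichment E-score averaged over duplicate arrays.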
Turning to AGTAAGCG, the “PBM E-score of 8-mer” value was determined as 0.0307 ± 0.0011. For CCACCGTC, the “PBM E-score of 8-mer” value was -0.172 ± 0.078.

As for TATGCTAA, the “PBM E-score of 8-mer” value was 0.00432 ± 0.0064. To AGACAGCC belongs -0.106 ± 0.092; to TATACGGA, -0.00401 ± 0.018; to CCCTTTAA, -0.198 ± 0.09. To CTGAACGA belongs -0.256 ± 0.038; to AAGTACCG, -0.255 ± 0.027. The value for CACGCCTG was 0.284 ± 0.023; that for CGCATTGC was -0.192 ± 0.0094; that for ATGCCGTA was -0.214 ± 0.059. Take ATCGAAGA: the “PBM E-score of 8-mer” value was -0.0933 ± 0.08. Regarding CTCCTCTC, the “PBM E-score of 8-mer” value was -0.0351 ± 0.013.

Turning to GCCCCCAC, the “PBM E-score of 8-mer” value was -0.172 ± 0.0032. The value for CGTAATAA was 0.0313 ± 0.0089. The value for TACAGCCA was -0.252 ± 0.035. The value for TTCCACAA was 0.136 ± 0.0051; that for CGTATCGC was 0.2173 ± 0.0016; that for ACGAGGAC was -0.21 ± 0.02. As to CGCACTAA, the “PBM E-score of 8-mer” value was 0.199 ± 0.013. The value for CAAGGCAG was -0.304 ± 0.0079; that for AGGCGTGA was 0.4805 ± 0.00059. The value for CCTCAAGG was -0.113 ± 0.057.

Consider TGGCGTAA, for which the “PBM E-score of 8-mer” value was determined as 0.00331 ± 0.0098.

In the case of ATGCAGGC, the “PBM E-score of 8-mer” value is -0.249 ± 0.071.

Turning to CGATCCAC, the “PBM E-score of 8-mer” value was -0.159 ± 0.05. On to AAAGAGGC, for which the “PBM E-score of 8-mer” value is -0.171 ± 0.044. The value for ACTGACAC was 0.379 ± 0.012. To AAGGGAAT belongs -0.106 ± 0.051.

Regarding ATTCCACC, the “PBM E-score of 8-mer” value was -0.173 ± 0.032. To GAGCCGAA belongs -0.0509 ± 0.017; to AAGTGAAG, 0.0945 ± 0.087. The value for AAACGGCT was -0.124 ± 0.00042; that for ATGGAGTG was 0.126 ± 0.035; that for ACTATCAT was 0.0404 ± 0.024. To AGGTTAGA belongs -0.141 ± 0.011; to AGTTCACA, 0.395 ± 0.0064; to TCAATCAA, -0.18 ± 0.035. Turning to ATCCCCCC, the “PBM E-score of 8-mer” value was -0.148 ± 0.0099. The value for ACCGCAAC was 0.0188 ± 0.15.

As for CGTATATC, the “PBM E-score of 8-mer” value was -0.197 ± 0.12.

As to CGTGCCTA, the “PBM E-score of 8-mer” value was -0.0437 ± 0.046. The value for CTCAGGCC was -0.35 ± 0.03; that for CTTTTCCA was -0.117 ± 0.032; that for AGTACTCG was -0.0641 ± 0.051.

Turning to ACTCCGCT, the “PBM E-score of 8-mer” value turned out to be 0.00059 ± 0.053. To CGCCAGGC belongs 0.0754 ± 0.005; to GACTCCCA, 0.0644 ± 0.041. Consider GCGTTATA, for which the “PBM E-score of 8-mer” value came out at 0.0969 ± 0.078. Take GGGTCGTA: the “PBM E-score of 8-mer” value is -0.0793 ± 0.043. For GACACGAA, the “PBM E-score of 8-mer” value is 0.0713 ± 0.025. As for AGCTCTAG, the “PBM E-score of 8-mer” value is -0.214 ± 0.056.

As for GAATCAAC, the “PBM E-score of 8-mer” value is -0.054 ± 0.024. To CATGGGTC belongs -0.153 ± 0.038; to TACGTGCA, 0.0029 ± 0.0098. As to CACATCAA, the “PBM E-score of 8-mer” value was 0.168 ± 0.039. The value for AGAAGGAT was -0.0606 ± 0.024. The value for CCTTGAAG was -0.158 ± 0.098. To ACCCCATA belongs 0.0374 ± 0.0074. Turning to ACAGTCCC, the “PBM E-score of 8-mer” value is -0.0109 ± 0.038. Consider TAGGGGAA, for which the “PBM E-score of 8-mer” value was -0.112 ± 0.034. To GCATGCAC belongs -0.134 ± 0.064; to CCGAATCA, -0.0209 ± 0.062; to GCCATTAA, -0.111 ± 0.042.

Consider ACGCCAGC, for which the “PBM E-score of 8-mer” value was determined as 0.223 ± 0.01. To TAGCCTCA belongs -0.278 ± 0.051; to CTCAATCC, -0.0643 ± 0.012; to GGCGACTA, 0.0427 ± 0.031. The value for CTCCCCTA was -0.232 ± 0.0027. To ATTTTACA belongs 0.0319 ± 0.09; to CGCTTGCA, 0.125 ± 0.0022; to CGCCGCAG, -0.0564 ± 0.044.

Turning to CAACGGAC, the “PBM E-score of 8-mer” value stood at 0.0874 ± 0.13. For ATGGGCCC, the “PBM E-score of 8-mer” value is -0.128 ± 0.015. To CTTCGTGC belongs -0.0507 ± 0.059; to AGGGCGTC, 0.108 ± 0.062. To TCCCGACA belongs 0.0834 ± 0.073; to AAAGAATA, -0.00788 ± 0.042. The value for GTCCTCTA was -0.22 ± 0.011; that for AGACTTCA was -0.0394 ± 0.0082; that for AATAAGAA was -0.197 ± 0.089.

Consider AATTGGTA, for which the “PBM E-score of 8-mer” value is -0.124 ± 0.072.

As for CGATTCAG, the “PBM E-score of 8-mer” value was -0.0206 ± 0.072. The value for GCTGTCTA was 0.0607 ± 0.03; that for CCATTAGC was 0.093 ± 0.067.

AAGAGTCT: the “PBM E-score of 8-mer” value was -0.294 ± 0.015.
